Measured values: PubChem BioAssay AID504332 (National Center for Advancing Translational Sciences (NCATS), 2011)
The campaign covered roughly 350,000 compounds. About 31,000 (8.9%) were called active. This list was built around the results that the source calls inconclusive (neither active nor inactive); the mix of calls is not that of the screen. Calls follow the shape of the dose curve; as a rule, active = well fitted inhibition curve with a large enough effect; inconclusive = small, poorly fitted or top-dose-only effect; inactive = no such curve, though single readings can be large or run the other way. Potencies of inconclusive entries are doubtful fits and often do not repeat.

Target: Histone-lysine N-methyltransferase EHMT2 (Homo sapiens) (UniProt Q96KQ7)
Sequence of UniProt Q96KQ7 (Q96KQ7 whole entry, looked up): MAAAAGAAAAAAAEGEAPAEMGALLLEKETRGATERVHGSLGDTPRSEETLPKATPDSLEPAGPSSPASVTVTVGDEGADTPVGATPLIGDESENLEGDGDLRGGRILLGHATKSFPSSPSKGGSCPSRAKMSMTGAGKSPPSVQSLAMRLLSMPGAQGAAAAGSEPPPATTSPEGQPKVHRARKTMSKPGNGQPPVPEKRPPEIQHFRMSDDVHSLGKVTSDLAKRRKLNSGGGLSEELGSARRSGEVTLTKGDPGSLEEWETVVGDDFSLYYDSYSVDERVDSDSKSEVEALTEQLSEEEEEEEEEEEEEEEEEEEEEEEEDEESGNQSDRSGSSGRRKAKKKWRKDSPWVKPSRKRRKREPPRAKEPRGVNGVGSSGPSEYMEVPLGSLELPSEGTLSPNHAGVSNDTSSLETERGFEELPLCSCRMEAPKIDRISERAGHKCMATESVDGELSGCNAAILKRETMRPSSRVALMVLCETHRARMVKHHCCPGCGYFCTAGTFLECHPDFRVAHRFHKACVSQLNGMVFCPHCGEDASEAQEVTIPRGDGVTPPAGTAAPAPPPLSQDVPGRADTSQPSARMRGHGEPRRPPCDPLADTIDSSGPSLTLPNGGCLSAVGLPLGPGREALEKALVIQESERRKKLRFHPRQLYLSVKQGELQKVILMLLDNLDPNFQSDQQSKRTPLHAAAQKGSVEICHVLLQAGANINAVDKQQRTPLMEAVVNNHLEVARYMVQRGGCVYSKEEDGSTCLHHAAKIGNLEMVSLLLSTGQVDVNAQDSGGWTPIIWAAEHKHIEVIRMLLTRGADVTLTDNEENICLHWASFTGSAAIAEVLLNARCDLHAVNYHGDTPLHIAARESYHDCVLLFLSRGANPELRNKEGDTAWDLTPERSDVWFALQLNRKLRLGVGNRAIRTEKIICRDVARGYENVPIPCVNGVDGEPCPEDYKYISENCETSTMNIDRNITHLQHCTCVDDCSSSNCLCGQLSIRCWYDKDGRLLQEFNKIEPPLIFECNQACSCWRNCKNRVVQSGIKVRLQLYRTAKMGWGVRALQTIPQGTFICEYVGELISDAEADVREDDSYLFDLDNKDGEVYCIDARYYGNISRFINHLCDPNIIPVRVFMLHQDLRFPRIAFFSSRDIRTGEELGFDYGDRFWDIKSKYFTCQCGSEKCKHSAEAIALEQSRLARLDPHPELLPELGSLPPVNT
Assay: qHTS Assay for Inhibitors of Histone Lysine Methyltransferase G9a; also: nearly all actives have a fitted effect of over 75% in size
Conditions: G9a H3K9 monomethylation, AlphaScreen, 2 h; activity, negative = inhibition: at 59 µM (top of the series) unless noted
Procedure, shortened: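 Signal arises when biotinylated H3K9 peptide, once monomethylated, bridges streptavidin donor and antibody-captured acceptor beads. Enzyme at 20 nM was preincubated 15 min with test compounds; peptide 500 nM and SAM 20 uM then reacted for 2 h.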
% is scaled to controls: 0 for no effect and ±100 for the full control effect; potency is read from the fitted curve at half-maximal effect; tags tell the direction and shape of the fitted curve.

Row | Structure (SMILES) | activity, negative = inhibition | Potency
1 | O=C(NC(Cc1c[nH]c2ccccc12)C(=O)Nc1ccc(OC(F)(F)F)cc1)c1cccs1 (centres undefined) | inactive: -3.4% | 
2 | O=[N+]([O-])c1cc(Cl)ccc1Oc1ccc(-c2nnco2)cc1 |  | inconclusive: 28.2 µM [inhibitor, partial curve]
3 | CCN(CC)CCCN1C(=O)C(O)=C(C(=O)c2cc3ccccc3o2)C1c1ccccn1 (centres undefined) |  | inconclusive: 20 µM [inhibitor, single point]
4 | CCOC(=O)N1CCC(Nc2c(N3CCN(c4cc(Cl)ccc4C)CC3)c(=O)c2=O)CC1 |  | inconclusive: 89.1 µM [inhibitor, single point]
5 | Cc1cnc(NC(=O)c2cc3ccccc3o2)s1 |  | inconclusive: 44.7 µM [inhibitor, partial curve, poor fit]
6 | COc1ccc(NC(=O)CSc2nc3sc(C)c(C)c3c(=O)n2Cc2ccco2)cc1 |  | inconclusive: 79.4 µM [inhibitor, single point]
7 | CC(C)(C)c1ccc(C(=S)N2CCN(c3ccccc3)CC2)cc1 |  | active: 20 µM
8 | CC(=O)c1ccc(NC(=O)CSc2ccc3nnc(-c4ccccn4)n3n2)cc1 | inactive: 89% [at 102 µM] | 
9 | CCCCn1c(N)c(S(=O)(=O)c2ccc(C)cc2)c2nc3ccccc3nc21 |  | inconclusive: 79.4 µM [inhibitor, single point]
10 | COc1cc(-c2ccccc2)nc(N)n1 |  | inconclusive: 89.1 µM [inhibitor, partial curve, poor fit]
11 | COc1cc(NC(=O)CCc2c(C)nc3cc(-c4ccccc4)nn3c2C)cc(OC)c1OC | inactive: -34.7% | 
12 | Cc1ccc(NC(=O)CCN2CCN(CCO)CC2)cc1Br |  | inconclusive: 89.1 µM [inhibitor, single point]
13 | COC(=O)c1cc(OC)cc(O)c1C(=O)c1c(O)cc(C)cc1O | inconclusive: -68.7% [inhibitor] | 
14 | COc1cc(/C=N/NC(=O)c2cccc(S(=O)(=O)N3CCCC3)c2)ccc1O | inactive: 4.84% [at 0.501 µM] | 
15 | COc1cccc(C(=O)NC2CCCN(C3Cc4ccccc4C3)C2)c1OC (centres undefined) | inactive: 20.4% [at 102 µM] | 
16 | CN1C(=O)c2ccccc2C(C(=O)NCCCN2CCCC2)C1c1c[nH]c2ccccc12 (centres undefined) |  | inconclusive: 25.1 µM [inhibitor, single point]
17 | CC(C)C(=O)N1CCN(c2nc(-c3ccc(Cl)cc3)cs2)CC1 |  | inconclusive: 79.4 µM [inhibitor, partial curve, poor fit]
18 | CCCN1C(=O)C2(c3ccccc31)c1c(oc3ccc(F)cc3c1=O)C(=O)N2CCCOC(C)C (centres undefined) | inactive: -34.6% | 
19 | OCCCNc1nc(-c2ccccc2)nc2c1oc1ccccc12 |  | active: 50.1 µM
